We go through one molecule from US9803019B2, “Carrier immunoglobulins and uses thereof” (Amgen Inc., priority 2010, dated 2017).

Data set [1] is described as follows: Rat PK, single SC dose (Example 4). It is filed as in vivo, Sprague-Dawley rats. To be noted: 5 mg/kg subcutaneously. As for the experimental part: Serum concentrations were then determined using an anti-human Fc based ELISA.
The pharmacokinetic profile of the 16435, 16444, 4241, and 4341 carrier antibodies was determined in adult Sprague-Dawley rats (8-12 weeks old) by injecting 5 mg/kg subcutaneously and collecting approximately 250 μL of blood in Microtainer® serum separator tubes at 0, 0.25, 1, 4, 24, 48, 72, 96, 168, 336, 504, 672, 840 and 1008 hours post-dose from the lateral tail vein. Each sample was maintained at room temperature following collection, and following a 30-40 minute clotting period, samples were centrifuged at 2-8° C. at 11,500 rpm for about 10 minutes using a calibrated Eppendorf 5417R Centrifuge System (Brinkmann Instruments, Inc., Westbury, N.Y.). The collected serum was then transferred into a pre-labeled (for each rat), cryogenic storage tube and stored at −60° C. to −80° C. for future analysis. To measure the serum sample concentrations from the PK study samples, the following method was used: ½ area black plate (Corning 3694) was coated with 2 μg/ml of anti-hu Fc, antibody 1.35.1 in PBS and then incubated overnight at 4° C. The plate was then washed and blocked with I-Block™ (Applied Biosystems) overnight at 4° C. […] The plate was washed, then 50 μl of Pico substrate were added, after which the plate was immediately analyzed with a luminometer.

The test system of data set [2] is cryosections of selected human tissues. Nature of the data set: Human tissue cross-reactivity (immunohistochemistry on cryosections). To be noted: Alexa Fluor 488 labeled antibody at 2.0 or 10.0 μg/mL; preliminary non-GLP study. As for the experimental part: In general accordance with the guidance laid out in Points to Consider in the Manufacture and Testing of Monoclonal Antibody Products for Human Use (U.S. Department of Health and Human Services, Food and Drug Administration, Center for Biologics Evaluation and Research (1997)), a preliminary non-GLP study was carried out to determine cross-reactivity of inventive antibodies with a variety of human tissues. If an antibody is intended for drug development, a more extensive testing under GLP conditions is required. The tissue cross-reactivity of antibodies 16435 and 4341 was evaluated (Charles River Laboratories, Preclinical Services, Reno, Nev.) with cryosections of selected human tissues using Alexa Fluor 488 labeled forms of the test articles. Normal human tissues from two unique individuals (unless otherwise indicated) were obtained from the Special Pathology Services Human Tissue Bank collected by the National Disease Research Interchange (NDRI, Philadelphia, Pa.), Cureline, Inc. (Burlingame, Calif.), Cybrdi (Rockville, Md.), or Rocky Mountain Lions Eye Bank (Aurora, Colo.). Tissues tested included human cerebellum, lung, cerebral cortex, ovary ([…]), eye, placenta, gastrointestinal tract (small intestine), skin (1 individual), heart, spleen, kidney (1 individual), thyroid, liver, testis. […]

Data set [3] is described as follows: Light sensitivity: 3 days fluorescent light vs dark, SEC / HIC analysis. As to conditions: 3 days at room temperature, ambient fluorescent light vs aluminum foil. In kind it is physicochemical. The method, then: Samples were eluted at 0.8 ml/min with a 0-100% linear gradient over 50 minutes observing the absorbance at 220 nm.
To measure the light sensitivity of the antibodies, they were incubated in ambient lab fluorescent lighting or covered in aluminum foil for 3 days at room temperature. Light exposed and dark control antibodies were then analyzed using two size exclusion columns (TSK-GEL G3000SWXL, 5 mm particle size, 7.8×300 mm, TosohBioscience, 08541) in series with a 100 mM sodium phosphate, 250 mM NaCl, pH 6.8, mobile phase flowed at 0.5 mL/min. […] The antibodies were then analyzed by hydrophobic interaction chromatography (HIC) using two Dionex ProPac HIC-10 columns in series with mobile phase A being 1 M ammonium sulfate, 20 mM sodium acetate, pH 5.0 and mobile phase B being 20 mM sodium acetate, 5% acetonitrile, pH 5.0. Samples were eluted at 0.8 ml/min with a 0-100% linear gradient over 50 minutes observing the absorbance at 220 nm.
To measure the light sensitivity of the antibodies, they were incubated in ambient lab fluorescent lighting or covered in aluminum foil for 3 days at room temperature. The antibodies were then analyzed by hydrophobic interaction chromatography using two Dionex ProPac HIC-10 columns in series with mobile phase A being 1 M ammonium sulfate, 20 mM sodium acetate, pH 5.0 and mobile phase B being 20 mM sodium acetate, 5% acetonitrile, pH 5.0. […]

B1: 4341 (antibody)
heavy: QVQLQESGPGLVKPSQTLSLTCTVSGGSISSGDYFWSWIRQLPGKGLEWIGHIHNSGTTYYNPSLKSRVTISVDTSKKQFSLRLSSVTAADTAVYYCARDRGGDYAYGMDVWGQGTTVTVSSASTKGPSVFPLAPSSKSTSGGTAALGCLVKDYFPEPVTVSWNSGALTSGVHTFPAVLQSSGLYSLSSVVTVPSSSLGTQTYICNVNHKPSNTKVDKRV[here human IgG1 Fc without letters]
light: EIVLTQSPGTLSLSPGERATLSCRASQGISRSELAWYQQKPGQAPSLLIYGASSRATGIPDRFSGSGSGTDFTLTISRLEPEDFAVYYCQQFGSSPWTFGQGTKVEIKRTVAAPSVFIFPPSDEQLKSGTASVVCLLNNFYPREAKVQWKVDNALQSGNSQESVTEQDSKDSTYSLSSTLTLSKADYEKHKVYACEVTHQGLSSPVTKSFNRGEC
As to B1, the “AUC0-t±SD” value in data set [1] is on record as 24,513±972 μg/h/mL. Further, the “specific staining of human tissues (cross-reactivity)” value in data set [2] is “no specific staining in any human tissue examined”. In addition, in data set [3], the “light sensitivity (HIC chromatograms with and without light exposure)” value is recorded as “neither antibody displayed significant differences”.
